According to PMC4336329 (PLoS ONE, 2015):
Out of some 310,000 compounds screened, about 14,000 (4.5%) showed an effect of 50% or more. The effect is printed as a negative number. This is one part of the list.

target: human ether-à-go-go-related gene (hERG) potassium channel (human, UniProt Q12809); test: primary screen, population patch clamp on CHO cells stably expressing hERG
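Further: peak tail current of the secondary pulse compared with the same well before compound.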

Sequence of human ether-à-go-go-related gene (hERG) potassium channel (Q12809 whole entry, looked up): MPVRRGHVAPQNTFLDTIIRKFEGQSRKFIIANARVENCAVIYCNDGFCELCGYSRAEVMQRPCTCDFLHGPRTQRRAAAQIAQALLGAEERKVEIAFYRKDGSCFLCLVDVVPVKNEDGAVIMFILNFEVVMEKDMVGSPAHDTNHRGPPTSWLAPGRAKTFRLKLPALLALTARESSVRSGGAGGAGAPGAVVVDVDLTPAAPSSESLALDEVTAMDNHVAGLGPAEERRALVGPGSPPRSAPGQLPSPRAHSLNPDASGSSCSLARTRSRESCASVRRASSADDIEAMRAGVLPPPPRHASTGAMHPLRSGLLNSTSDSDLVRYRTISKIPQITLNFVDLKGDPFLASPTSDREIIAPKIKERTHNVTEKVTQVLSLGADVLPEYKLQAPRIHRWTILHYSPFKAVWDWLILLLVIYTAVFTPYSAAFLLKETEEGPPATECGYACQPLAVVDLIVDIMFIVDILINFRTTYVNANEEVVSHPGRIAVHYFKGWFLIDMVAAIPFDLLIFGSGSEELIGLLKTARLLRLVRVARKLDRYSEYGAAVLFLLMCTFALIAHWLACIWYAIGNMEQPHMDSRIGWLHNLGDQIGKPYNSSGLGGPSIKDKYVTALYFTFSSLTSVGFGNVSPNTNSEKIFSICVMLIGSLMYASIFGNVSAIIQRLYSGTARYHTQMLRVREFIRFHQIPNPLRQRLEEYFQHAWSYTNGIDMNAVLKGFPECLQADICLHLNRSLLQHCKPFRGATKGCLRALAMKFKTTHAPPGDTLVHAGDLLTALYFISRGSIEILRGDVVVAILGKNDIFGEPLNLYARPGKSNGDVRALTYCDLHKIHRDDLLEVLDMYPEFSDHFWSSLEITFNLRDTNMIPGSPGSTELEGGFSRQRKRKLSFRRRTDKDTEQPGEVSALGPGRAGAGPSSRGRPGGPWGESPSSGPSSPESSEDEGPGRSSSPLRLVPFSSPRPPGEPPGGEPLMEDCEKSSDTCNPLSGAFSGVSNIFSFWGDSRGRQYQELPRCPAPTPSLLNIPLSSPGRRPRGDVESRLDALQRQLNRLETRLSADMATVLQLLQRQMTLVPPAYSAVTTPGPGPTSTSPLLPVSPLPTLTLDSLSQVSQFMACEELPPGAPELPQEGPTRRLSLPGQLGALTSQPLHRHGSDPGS

Row | Structure (SMILES) | hERG current change (%, negative = inhibition) at 10uM [%]
1 | Cc1ccc(-n2c(O)c(/C=N/n3cnnc3)c3ccccc3c2=O)cc1 [14745934] | 4.8
2 | CCOc1ccc2c(c1)C(C)=CC(C)(C)N2S(=O)(=O)c1ccc(NC(C)=O)cc1 | 10
3 | Cc1ccc(NC(=S)NCC(C)C)cc1 | 21.1
4 | O=C(NCC1CCCO1)c1ccccc1-c1nc(-c2ccccc2Cl)no1 (stereo not drawn) | -12.5
5 | O=C(CNC(=O)C1COc2ccccc2O1)N/N=C/c1cc(Br)c(O)c(Br)c1 (stereo not drawn) | -7.99
6 | Nc1n[nH]c(-c2ccccc2)c1-c1ccccc1 | -10.3
7 | Cc1cccnc1NC(=O)c1ccc(Cl)c(S(=O)(=O)N2CCCCC2)c1 | -21.7
8 | O=C(CN1CCCC1)Nc1cccc(Cl)c1Cl | 17.1
9 | Cc1[nH]n(-c2ccccc2)c(=O)c1-c1ccccc1 | -7.81
10 | Cc1nc(SCC(=O)Nc2ccc(N3CCOCC3)cc2)nc(C)c1C | -2.45
11 | CC(=O)c1cccc(NC(=S)N2CCN(S(C)(=O)=O)CC2)c1 | 16.8
12 | Cc1cc(C)n(CC(=O)NC2CCCc3c2cnn3-c2ccc(C)c(C)c2)n1 (stereo not drawn) | -1.49
13 | CCC1(CC)NC(=O)N(CC(=O)OCC(=O)NC(=O)c2ccccc2)C1=O | 5.41
14 | CCOCC(=O)Nc1ccc(S(=O)(=O)NCC2CCCO2)cc1 (stereo not drawn) | 18.5
15 | CC(C)(C)C1=Nn2c(nnc2-c2ccccn2)SC1 | 1.15
16 | CCOC(=O)C1CCN(S(=O)(=O)c2cccc(-c3cn4cc(Cl)ccc4n3)c2)CC1 | -58
17 | COc1ccccc1-n1ccnc(SCC(=O)NC2CCCC2)c1=O | 6.92
18 | C=CCCC(=O)N1CCCC(Cc2cccc(Cl)c2)(C(=O)OCC)C1 (stereo not drawn) | -7
19 | CC(C)C(C(=O)NCC1CCCO1)N(CC1CCCO1)C(=O)CNS(=O)(=O)c1ccccc1 (stereo not drawn) | 22.2

Row | Structure (SMILES) | hERG current change (%, negative = inhibition) at 10uM [%]
20 | CC1CCc2sc(C(=O)NCC(c3ccco3)N3CCCCC3)cc2C1 (stereo not drawn) | -30.8
21 | N#CCCn1c2ccccc2c2nc3ccccc3nc21 | 9.13
22 | COc1ccc(NC(=O)c2nn(C)c3c2CS(=O)(=O)c2ccccc2-3)cc1 | 20.7
23 | CSc1ncccc1C(=O)OCC(=O)N1CCN(S(=O)(=O)c2ccc(C)cc2C)CC1 | 35.8
24 | O=C(Nc1ccccc1NC(=O)NC1CCCCC1)NC1CCCCC1 | 0.961
25 | Cc1ccc2nc(NCCCO)nc(-c3ccccc3)c2c1 | -18.4
26 | Cc1occc1-c1nnc(SCC(N)=O)n1Cc1ccccc1 | 3.5
27 | Cc1ccc(S(=O)(=O)N2CCCCC2)cc1C(=O)NCC1CCCO1 (stereo not drawn) | -2.05
28 | COc1ccccc1-c1nn2c(=O)cc(C)nc2s1 | -0.259
29 | C[N+]1(CC(O)COCC2COc3ccccc3O2)CCOCC1.[I-] (stereo not drawn) | 18.3
30 | CC(C(=O)NC1CCS(=O)(=O)C1)N1C(=O)/C(=C/c2ccc(Cl)cc2)SC1=S (stereo not drawn) | -0.544
31 | CC(=O)Nc1ccc(S(=O)(=O)N2CCSC2c2ccc(Cl)cc2)cc1 (stereo not drawn) | 4.1
32 | CC(C)OCCCn1c(SCC(=O)Nc2ccccc2C(F)(F)F)nc2nccnc2c1=O | 8.08
33 | CC(C)CCNC(=O)c1cc([N+](=O)[O-])ccc1N1CCOCC1 | -17.1
34 | Cc1cccc(NC(=O)CSc2nnc(CCNC(=O)OC(C)(C)C)o2)c1C | 12.2
35 | COCCCNC(=O)CNC(=O)c1cn(-c2ccccc2OC)c(=O)c2ccccc12 | -1.56
36 | Cc1cc(S(=O)(=O)Cc2noc(-c3c(C)noc3C)n2)c(C)cc1Cl | -7.48
37 | CCC1Oc2ccccc2N(CC(=O)NC2CC2)C1=O (stereo not drawn) | 14.8
38 | COc1ccc(/C=C2/CCc3ccccc3C2=O)cc1CN1CCOCC1 | -59.6

Row | Structure (SMILES) | hERG current change (%, negative = inhibition) at 10uM [%]
39 | CSc1nnc(-c2ccc(NC(=O)CCc3ccccc3)cc2)n1C | 8.36
40 | O=C(Nc1ccccc1N1CCCCC1)c1ccccc1F | -14.5
41 | CCCCCCOc1ccc(N2C(=O)CC(N(CCc3ccc(S(N)(=O)=O)cc3)C(C)=O)C2=O)cc1 (stereo not drawn) | 8.24
42 | COc1ccc2[nH]c(=O)c(CNc3cc(C)ccc3C)cc2c1 | -1.5
43 | O=C(CSc1ncccn1)N/N=C/c1cccc(OC2CSC2)c1 | -10.1
44 | O=C(NCC(c1ccco1)N1CCCCC1)C(c1ccccc1)c1ccccc1 (stereo not drawn) | -29.6
45 | COc1ccc(CCNC(=O)C2CCN(S(=O)(=O)N3CCCCC3)CC2)cc1OC | -6.03
46 | COC(=O)c1sccc1NC(=O)CSCC(=O)O | 15.4
47 | CCOC1OC(=O)C(Cl)=C1Nc1cc(C)ccc1C (stereo not drawn) | 16.6
48 | O=C(CN(C(=O)c1csnn1)c1ccc(F)c(Cl)c1)NC1CCCC1 | -5.01
49 | CCCc1cc(=O)oc2cc3occ(C)c3cc12 | -0.245
50 | C[C@H](NC(=O)[C@@H]1CSC2c3ccccc3C(=O)N21)C(=O)NCCc1ccc(F)cc1 (stereo partly drawn) | -9.71
51 | Cc1cc(C)n2nc(SCC(=O)N(CCC#N)c3ccccc3F)nc2n1 | 7.84
52 | O=C(Cc1ccccc1)NCCc1cnc[nH]1 | 17.4
53 | CCN(CC)S(=O)(=O)c1cccc(-c2n[nH]c(=S)n2Cc2ccccc2)c1 | -18.3
54 | O=C(NC1(C(F)(F)F)N=C2SCCN2C1=O)c1ccco1 (stereo not drawn) | 2.81
55 | Cc1cccc(NC(=O)Nc2ccc3c(c2)OCO3)n1 | 12.6
56 | O=C(O)CC12C[C@H]3C[C@@H](C1)CC(n1ncc(N4CCN(c5ccccc5)CC4)c(Cl)c1=O)(C3)C2 | 6.36
57 | CCOC(=O)c1c(NC(=O)Cc2ccccc2)sc2c1CCN(C)C2.Cl | -53
